Experimental data published in paper PMC6751195.
These are yes or no findings as the source states them, for the method shown. Binding seen in cells or lysates may run through a third protein. Some binding calls cover weakened binding; strength is not graded here.

The chains behind the UniProt entries cited, without tags or fusion partners. Where a name states a change or a piece, a line headed by the entry shows the natural chain unless it says otherwise.
UniProt Q96J87: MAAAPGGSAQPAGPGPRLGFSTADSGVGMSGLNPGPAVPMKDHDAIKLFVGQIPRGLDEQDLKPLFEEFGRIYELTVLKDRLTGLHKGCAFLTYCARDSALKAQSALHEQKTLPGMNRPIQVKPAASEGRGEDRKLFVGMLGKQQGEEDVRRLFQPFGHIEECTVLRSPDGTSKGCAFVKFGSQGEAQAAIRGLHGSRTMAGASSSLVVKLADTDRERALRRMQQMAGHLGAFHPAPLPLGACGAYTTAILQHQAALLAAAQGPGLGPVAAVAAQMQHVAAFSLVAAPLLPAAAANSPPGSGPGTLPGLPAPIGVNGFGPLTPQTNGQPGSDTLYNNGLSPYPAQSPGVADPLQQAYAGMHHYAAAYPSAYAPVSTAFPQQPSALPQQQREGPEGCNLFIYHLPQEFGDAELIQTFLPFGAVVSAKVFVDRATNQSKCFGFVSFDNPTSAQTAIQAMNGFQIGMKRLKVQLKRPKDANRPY
UniProt Q9Y297: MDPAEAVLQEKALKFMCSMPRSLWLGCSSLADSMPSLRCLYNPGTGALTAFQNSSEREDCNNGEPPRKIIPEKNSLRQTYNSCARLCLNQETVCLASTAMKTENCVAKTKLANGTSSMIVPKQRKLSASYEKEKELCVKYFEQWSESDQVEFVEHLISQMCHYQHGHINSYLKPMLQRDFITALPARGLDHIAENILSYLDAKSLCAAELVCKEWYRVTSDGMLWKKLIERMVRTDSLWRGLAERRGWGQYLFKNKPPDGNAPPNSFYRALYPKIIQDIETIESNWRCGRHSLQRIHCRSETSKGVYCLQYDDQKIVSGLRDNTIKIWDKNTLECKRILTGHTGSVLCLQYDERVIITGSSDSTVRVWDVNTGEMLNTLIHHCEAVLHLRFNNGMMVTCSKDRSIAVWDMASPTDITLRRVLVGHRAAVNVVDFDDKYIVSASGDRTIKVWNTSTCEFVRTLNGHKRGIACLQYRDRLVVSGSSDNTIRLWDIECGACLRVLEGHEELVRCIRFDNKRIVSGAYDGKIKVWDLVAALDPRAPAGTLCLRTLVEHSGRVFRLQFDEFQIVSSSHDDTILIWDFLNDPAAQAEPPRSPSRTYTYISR

target: His-CELF6 (human) (UniProt Q96J87); test: co-IP; HEK293 cells co-transfected with tagged CELF6 and Flag-β-TrCP; lysis buffer 20 mM Tris, 150 mM NaCl, 1 mM EDTA, 1 mM EGTA, 1% NP-40; lysates incubated 1 h with antibody (anti-GFP, anti-His or anti-Flag) on protein G beads, washed three times with PBS/T; immunoblotting

Substance	binding
Flag-β-TrCP (from UniProt Q9Y297 1-605)	binds

target: GFP-CELF6 (human) (UniProt Q96J87); test: as above

Substance	binding
Flag-β-TrCP (from UniProt Q9Y297 1-605)	binds

target: Flag-β-TrCP (UniProt Q9Y297); test: as above

Substance	binding
GFP-CELF6 (from UniProt Q96J87 1-481)	binds
His-CELF6 (from UniProt Q96J87 1-481)	binds
His-CELF6 D24A/S25A/G26A/S30A (from UniProt Q96J87 1-481)	binds
His-CELF6 NΔ35 (from UniProt Q96J87 36-481) (domain or fragment)	binds
His-CELF6 NΔ112 (from UniProt Q96J87 113-481) (domain or fragment)	binds
His-CELF6 NΔ224 (from UniProt Q96J87 225-481) (domain or fragment)	binds
His-CELF6 NΔ287 (from UniProt Q96J87 288-481) (domain or fragment)	no binding
His-CELF6 S25A/S30A (from UniProt Q96J87 1-481)	binds
His-CELF6 S99A/S105A (from UniProt Q96J87 1-481)	binds

target: Flag-β-TrCP (UniProt Q9Y297); test: co-IP; HEK293 cells transfected with Flag-β-TrCP and His-CELF6; cell extracts treated with λPPase before immunoprecipitation and immunoblotting

Substance	binding
His-CELF6 (from UniProt Q96J87 1-481)	binds
